# The supplement of paper PMC11283458
# This is one part of the list. Single values are uncertain, as repeats are few or missing.
# System: Mef2d microexon dual Nano/Firefly luciferase splicing reporter in Neuro-2a cells
# Test: B-score of Firefly/Nano luminescence ratio, V1 Mef2d microexon reporter (B-score (plate-normalised)); higher = more Mef2d microexon inclusion
# Conditions: 24 h
row,SMILES,B-score
1,C/C(=N\Cc1ccc(Cl)c(Cl)c1)c1ccccc1O (4 µM),6.46
2,CCOC(=O)/C=C(\C)Sc1cc(=O)oc2ccccc12 (4 µM),-1.41
3,CNC(=O)c1nn(C)c2c1C(C)(C)Cc1cnc(Nc3ccc(N4CCN(C)CC4)cc3)nc1-2 (0.5 µM),3.88
4,Nc1nc(=S)c2ncn([C@@H]3O[C@H](CO)[C@@H](O)[C@H]3O)c2[nH]1 [Thioguanosine] (4 µM),-16.3
5,O=C(Nc1noc2ccccc12)c1cc2c(s1)CCCC2 (4 µM),-1.3
6,NC(CSc1ccc(Cl)cc1)=NOC(=O)c1ccc(C(F)(F)F)cc1 (4 µM),0.759
7,COC(=O)Nc1nc2cc(Sc3ccccc3)ccc2[nH]1 [Fenbendazole] (4 µM),-2.15
8,Cc1nc2ncccn2c1-c1csc(Nc2ccc(N(C)C)cc2)n1 (4 µM),-6.07
9,Cc1onc(-c2ccccc2)c1C(=O)Nc1c(C(C)(C)C)nn(C)c1C(C)(C)C (4 µM),7.28
10,N#Cc1ccc2c(c1)/C(=C\c1ccccc1[N+](=O)[O-])C(=O)N2 (4 µM),-4.66
11,O=C1C(Cl)=C(Nc2ccccc2)C(=O)c2ccccc21 (4 µM),16.5
12,C/C(=C/C(=O)NCc1ccc(F)cc1)NCc1ccc(F)cc1 (4 µM),18
13,C=CC[C@H](N)C(=O)O [L-allylglycine] (4 µM),8.78
14,CC(C)(C)c1ccc(C(N)=NOC(=O)c2cnn(-c3ccc([N+](=O)[O-])cc3)c2C(F)(F)F)cc1 (4 µM),5.75
15,N=c1n(CCN2CCCCC2)c2ccccc2n1CC(=O)c1cccc([N+](=O)[O-])c1 (4 µM),0.791
